# Reference: PubChem BioAssay AID463173 (ICCB-Longwood Screening Facility, Harvard Medical School, 2010)
# The whole screen tested about 52,000 compounds, of which about 4,300 (8.3%) were called active. No stated cut-off is given here; in the data, active means survival mostly below about 52% (no sharp cut-off); inactive means mostly above about 56%. The list shows a part of the results.
# Tested on: DeltatarO mutant
# Assay: S. aureus survival, RN4220 and DeltatarO strains – OD600, teichoic acid synthesis inhibitors, primary screen (AID 463173)
# Details: S. aureus RN4220 wild type/DeltatarO growth, OD600, 18 h, hits give low values, screened at 18.75 µg/mL (by protocol)
row,Structure (SMILES),survival
1,Cc1ccc(Nc2sc(C(=O)c3ccccc3)c(N)c2S(=O)(=O)c2ccccc2)c(C)c1,inactive: 69%
2,COc1ccccc1N1CCN(C(=O)Cn2c(=O)n3nc(-c4cccc(C)c4)nc3c3ccccc32)CC1,inactive: 69%
3,COc1ccc(CCNC(=O)c2c(C)nn(-c3ccc(F)cc3)c2-n2cccc2)c(OC)c1OC,inactive: 67%
4,O=C1c2ccccc2-c2onc3ccc(Oc4c(F)c(F)c(F)c(F)c4F)c1c23,inactive: 100%
5,CCCSc1ncc(Cl)c(C(=O)Nc2c(C(=O)c3ccc(F)cc3)oc3ccccc23)n1,active: 44%
6,COc1ccc(-n2ncc(C(=O)Nc3ccc4c(c3)OCCO4)c2C2CCN(C(=O)OC(C)(C)C)CC2)cc1,inactive: 120%
7,CCCCC1(O)CC(C)N(C)CC1C (stereo unspecified),inactive: 75%
8,CCOc1ccc(CNC(=O)C2CCCN(S(=O)(=O)N(CC)c3ccc(OCC)cc3)C2)cc1 (stereo unspecified),inactive: 99%
9,Cc1ccc(S(=O)(=O)NCc2ccc(/C=N/NC(=O)c3ccco3)o2)cc1,inactive: 76%
10,COc1ccc2[nH]cc(CCNC(=O)c3cnn(-c4ccccc4Cl)c3C3CCN(C(=O)OC(C)(C)C)CC3)c2c1,inactive: 73%
11,CCOc1ccc(C(=O)Nc2ccc(-c3nc4ccccc4s3)c(C)c2)cc1OCC,inactive: 99%
12,Cc1ccc(NC(=O)Cn2nnc(-c3nc(-c4ccc(Cl)cc4)no3)c2N)cc1C,inactive: 78%
13,Cc1nc2c(C(=O)NCCc3ccccc3)c[nH]n2c(=O)c1Cc1ccc(F)cc1Cl,active: -16%
14,Cc1cccc(N2CCN(C(=O)c3ccc(NC(=O)c4nsc5ccccc45)cc3)CC2)c1C,inactive: 76%
15,N#C/C(=C/c1ccc(-c2cccc(C(F)(F)F)c2)o1)C(=O)OC1CCCCC1,inactive: 82%
16,O=C(O)c1cc2nc3c(c(C(F)(F)F)n2n1)CCC3,inactive: 89%
17,CCN(c1cc(C)cc(C)c1)S(=O)(=O)c1nnc(NC(=O)c2ccco2)s1,inactive: 52%
18,COc1ccc(NC(=O)CCN2CCN(CCO)CC2)cc1,inactive: 58%
19,CCn1c(CC2C(=O)N(C)c3ccccc32)nc2ccccc2c1=O (stereo unspecified),inactive: 84%
20,COc1ccc(Cl)cc1NC(=O)CSc1nc(-c2ccccc2)c2ccccc2n1,inactive: 83%
21,O=C(Nc1cccc(F)c1)[C@@H](c1ccccc1)N1Cc2ccccc2C1=O,active: 46%
22,CCc1nc2c(cnn2-c2ccc(Cl)cc2)c(=O)n1-c1ccc(OC)c(Cl)c1,inactive: 69%
23,Cc1ccc(OCC(=O)Nc2cc(-c3cccc(C)c3)nn2-c2ccccc2)cc1,inactive: 96%

row,Structure (SMILES),survival
1,CCOc1ccccc1C(=O)Nc1cc2c(cc1N1CCOCC1)n(C)c(=O)n2C,inactive: 77%
2,Cc1ccc(CCNC(=O)c2ccc3c(c2)c(C)c(C)n3Cc2ccccc2)cc1,inactive: 99%
3,CC1CCCN(c2ccc(C(=O)NCc3ccccc3)cn2)C1 (stereo unspecified),inactive: 85%
4,COc1ccc(-n2c(=O)c3sc4ccccc4c3n(CC(=O)NCc3ccccc3)c2=O)cc1,inactive: 104%
5,CCOc1ccc2[nH]c(=O)c(CN(CC3CCCO3)C(=O)N(CC)CC)cc2c1 (stereo unspecified),inactive: 98%
6,Cc1ccccc1CNC(=O)c1ccc(CS(=O)Cc2ccc(Cl)cc2)o1 (stereo unspecified),inactive: 79%
7,Cc1ccc2nc(N(Cc3cccnc3)C(=O)c3cccs3)sc2c1,inactive: 71%
8,CCCn1c(CCC(=O)Nc2cccc(CC)c2)nc2cccnc21,inactive: 69%
9,CCOc1ccc(N2CC(c3nc4ccccc4n3Cc3cccc(C)c3)CC2=O)cc1 (stereo unspecified),active: 42%
10,Cc1ccc(NC(=O)C(=O)NCCCN2CCOCC2)cc1C,inactive: 91%
11,Cc1cccc(NC(=O)C2(C)Cc3ccccc3C(=O)O2)c1 (stereo unspecified),inactive: 104%
12,CC(=O)Nc1ccc2nc(SCCOc3ccccc3)sc2c1,inactive: 85%
13,Cc1c(CNC2CCCCCC2)c(C(=O)O)c(C)n1Cc1ccc(F)cc1,inactive: 81%
14,COc1cc(C)c2c(=O)c(-c3nc(C)cs3)coc2c1,inactive: 77%
15,CCCSc1nnc2n(-c3ccc(OC)cc3)c(=O)c3c4c(sc3n12)COC(C(C)C)C4 (stereo unspecified),inactive: 57%
16,CC(C)CC(C(=O)NCCc1ccccc1)N1Cc2ccccc2C1=O (stereo unspecified),inactive: 88%
17,CCc1ccc(NC(=O)CCCn2nc(C)c3c(C)n(-c4ccccc4)nc3c2=O)cc1,inactive: 81%
18,Cc1nn(C(C)(C)C)c(OC(=O)c2cccc(F)c2)c1Sc1ccccc1,active: 24%
19,CCOc1ccc(CNC(=O)C2CCN(Cc3cc4ccccc4n3Cc3ccccc3C)CC2)cc1,inactive: 67%
20,COc1ccccc1CNC(=O)c1cc2ccc3ccc(C)[nH]c3c2n1,inactive: 74%
21,Cc1ccccc1CSCCNC(=O)CN(c1ccccc1)S(=O)(=O)N(C)C,inactive: 52%
22,CCN1CCc2c(sc(-n3cccc3)c2C(C)NC(=O)Nc2ccccc2C)C1 (stereo unspecified),inactive: 87%
23,Cn1c(CNC(=O)c2ccccc2)n[nH]c1=S,inactive: 76%

row,Structure (SMILES),survival
1,C=CCn1cc(/C=C(\C#N)C(=O)NC2CCCCC2)c2ccccc21,inactive: 83%
2,CCCNc1c2c(nc3ccccc13)CC(C)(C)CC2=O,inactive: 66%
3,CCn1nnc2cc(C(=O)Nc3cccc(C)c3C)ccc21,inactive: 72%
4,Cc1ccc(C)c(N2CCN(S(=O)(=O)c3csc(C(N)=O)c3)CC2)c1,inactive: 72%
5,COc1ccc(NC(=O)C2CCC(CNS(=O)(=O)c3cccs3)CC2)cc1OC (stereo unspecified),inactive: 112%
6,Clc1ccccc1-c1nnc(-c2ccccc2CNc2ccccc2)o1,inactive: 74%
7,COc1ccc(Cc2c(C)nn(-c3nc(C)c(C(=O)Nc4ccc(C)cc4C)s3)c2C)cc1,inactive: 69%
8,COc1cc(C2c3c(-c4ccccc4O)n[nH]c3C(=O)N2CCO)ccc1OCC(C)C (stereo unspecified),inactive: 99%
9,Cc1cccc(Oc2ccc(NC(=O)CCC(=O)OCC(=O)c3ccc(Br)cc3)cc2)c1C,inactive: 68%
10,Cc1ccc(C)c(CSc2cn(CCNC(=O)c3ccccc3F)c3ccccc23)c1,active: 35%
11,COc1cccc(C(C(=O)NCc2ccccc2)N(C(=O)Cn2nnc3ccccc32)c2cccc(C(C)=O)c2)c1 (stereo unspecified),active: 44%
12,O=C(O)C1CSC2(CCN(Cc3ccccc3)CC2)N1 (stereo unspecified),inactive: 99%
13,Cn1c(SCCC(=O)O)nnc1-c1ccncc1,inactive: 95%
14,O=C(Nc1ccccc1)C1CCCN1C(=O)NCc1ccccc1 (stereo unspecified),inactive: 104%
15,CCn1cc(C(=O)NCc2ccc(F)cc2)c(=O)c2cc(S(=O)(=O)N(C)C)ccc21,inactive: 81%
16,COc1cc(OC)c(NC(=O)CCNS(=O)(=O)c2ccc3c(c2)oc(=O)n3C)cc1Cl,inactive: 83%
17,CC(=O)N1CCCc2cc(S(=O)(=O)N(Cc3ccccc3)C(C)C)ccc21,inactive: 80%
18,COc1ccc(-n2c(CCC(=O)O)ccc2-c2ccccc2)c(OC)c1,active: 47%
19,COC(=O)COc1cc(C)nc(SC)n1,inactive: 62%
20,CCCCc1ccc(NC(=O)CSc2nnc3[nH]c(=O)cc(C)n23)cc1,inactive: 95%
21,CCCN1CCN(CCCNC(=O)c2ccc(CS(=O)c3ccc(OC)cc3)o2)CC1 (stereo unspecified),inactive: 97%
22,CCN(CC)CCNC(=O)c1cc2c(=O)oc3ccc(C)cc3c2s1,inactive: 90%
23,COc1ccc(Cc2nnc(SCC(=O)N3CCCC3)o2)cc1,inactive: 83%

row,Structure (SMILES),survival
1,Cc1ccc(NC(=O)Cn2nnc3sc4c(c3c2=O)CCCC4)c(C)c1,inactive: 86%
2,O=C(/C=C/c1ccc(Cl)cc1)Nc1nc(-c2cccs2)ns1,inactive: 61%
3,Cc1cc(C)c(Cn2c3ccccc3c3cnn(CC(=O)NCC(C)c4ccccc4)c(=O)c32)c(C)c1 (stereo unspecified),inactive: 77%
4,COc1cc2c(cc1OC)C(COc1ccccc1OC)N(C(=O)c1ccccc1OC)CC2 (stereo unspecified),inactive: 80%
5,O=S(=O)(c1ccccc1)N1CCN(S(=O)(=O)N2CCCCC2)CC1,inactive: 93%
6,CCc1cccc(NC(=O)CCS(=O)(=O)c2cc3c4c(c2)CCN4C(=O)CC3)c1,inactive: 76%
7,Cc1cccc(C(=O)Nc2cccc(OCc3cc(=O)n4ccccc4n3)c2)c1,inactive: 96%
8,COc1cc2c(=O)c(S(=O)(=O)c3ccccc3)cn(CC(=O)Nc3ccccc3C)c2cc1OC,inactive: 82%
9,COc1cc(OC)c(NC(=O)c2c3c(nc4ccccc24)C(=O)N(C2CCCCC2)C3)cc1Cl,inactive: 60%
10,CCN1C(=O)C2C(c3cccs3)NC(C)(C(=O)OC)C2C1=O (stereo unspecified),inactive: 82%
11,Cc1cc(C)c(NC(=O)Cn2c(=O)n(Cc3ccccc3)c(=O)c3c(C)c(C(=O)N(C)C)sc32)c(C)c1,inactive: 112%
12,CCC1CCCCN1Cc1cn2c(-c3ccc(Br)cc3)nnc2s1 (stereo unspecified),inactive: 80%
13,CCS(=O)(=O)N1CCc2cc(C(=O)Nc3ccc(OC)cc3OC)ccc21,active: 44%
14,CC(=O)c1cccc(NC(=O)c2nc(-c3ccccc3)n(-c3cccc(C)c3)n2)c1,inactive: 64%
15,CCOc1ccccc1NC(=O)CN1CCN(S(=O)(=O)c2ccc(Br)cc2)CC1,inactive: 92%
16,Cc1ccc(CNC(=O)CSC2=Nc3ccccc3C3=NC(C)C(=O)N23)cc1 (stereo unspecified),inactive: 71%
17,Cc1ccc2occ(CC(=O)N3CCN(c4cccc(Cl)c4)CC3)c2c1,inactive: 92%
18,CCCN1CCN(CCCNC(=O)Cn2c(-c3cccs3)cc3cc(Cl)ccc32)CC1,inactive: 80%
19,Cc1cc(Cl)ccc1NC(=O)c1cc2ccccn2n1,inactive: 69%
20,NC(=O)c1c(NC(=O)CN(C(=O)c2cccs2)C2CCCC2)sc2c1CCCC2,inactive: 78%
21,CCOC(=O)c1ccccc1NC(=O)c1nn(C)c2c1COc1ccccc1-2,inactive: 59%
22,CC(=O)Nc1cccc(NC(=O)C(=O)NCCc2csc3nc(-c4ccccc4F)nn23)c1,inactive: 64%
